According to patent US20140044713A1 (KONINKLIJKE NEDERLANDSE AKADEMIE VAN WETENSCHAPPEN, published 2014):

What was measured:
Assay in all cases: TAP + mass spectrometry, HEK293 cells
USP47 = target: T1, USP47 (Homo sapiens (Human), UniProt Q96K76 1-1375)
T1 construct: TAP-MS bait
T1 sequence: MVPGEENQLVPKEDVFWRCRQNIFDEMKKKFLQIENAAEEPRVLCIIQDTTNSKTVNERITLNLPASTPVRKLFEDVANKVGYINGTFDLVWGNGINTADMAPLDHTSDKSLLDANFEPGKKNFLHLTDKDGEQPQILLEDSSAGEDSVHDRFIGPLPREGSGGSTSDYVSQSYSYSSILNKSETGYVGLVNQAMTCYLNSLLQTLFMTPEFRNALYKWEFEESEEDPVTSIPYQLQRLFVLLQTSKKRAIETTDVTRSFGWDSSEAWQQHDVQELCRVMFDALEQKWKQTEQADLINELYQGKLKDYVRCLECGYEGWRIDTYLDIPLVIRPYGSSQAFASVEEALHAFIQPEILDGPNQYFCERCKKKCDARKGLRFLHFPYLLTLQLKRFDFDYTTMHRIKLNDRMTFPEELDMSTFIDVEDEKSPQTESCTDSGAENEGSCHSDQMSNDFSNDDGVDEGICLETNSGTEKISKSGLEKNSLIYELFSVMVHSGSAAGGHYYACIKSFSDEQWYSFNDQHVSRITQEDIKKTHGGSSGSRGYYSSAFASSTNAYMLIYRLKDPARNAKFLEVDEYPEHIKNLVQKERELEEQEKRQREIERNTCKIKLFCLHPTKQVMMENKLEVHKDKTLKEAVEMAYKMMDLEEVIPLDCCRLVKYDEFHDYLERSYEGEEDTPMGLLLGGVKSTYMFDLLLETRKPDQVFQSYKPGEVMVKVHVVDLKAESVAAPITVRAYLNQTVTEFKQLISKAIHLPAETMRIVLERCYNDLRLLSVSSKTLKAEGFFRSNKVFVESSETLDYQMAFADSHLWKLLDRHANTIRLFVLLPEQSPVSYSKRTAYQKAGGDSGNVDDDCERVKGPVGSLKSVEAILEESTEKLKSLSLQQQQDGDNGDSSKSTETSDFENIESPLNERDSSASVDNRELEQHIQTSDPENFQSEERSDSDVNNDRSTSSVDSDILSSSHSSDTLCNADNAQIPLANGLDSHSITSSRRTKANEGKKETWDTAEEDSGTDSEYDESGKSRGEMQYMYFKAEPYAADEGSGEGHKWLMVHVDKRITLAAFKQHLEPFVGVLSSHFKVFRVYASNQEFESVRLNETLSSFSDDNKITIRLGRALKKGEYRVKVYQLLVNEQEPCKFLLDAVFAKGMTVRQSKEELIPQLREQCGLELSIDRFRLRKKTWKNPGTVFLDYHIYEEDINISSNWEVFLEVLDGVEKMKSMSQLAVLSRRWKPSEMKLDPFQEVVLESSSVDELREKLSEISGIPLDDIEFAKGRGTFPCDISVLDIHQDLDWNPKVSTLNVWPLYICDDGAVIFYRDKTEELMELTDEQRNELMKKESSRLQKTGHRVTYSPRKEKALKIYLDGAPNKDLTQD

FBXO18 = target: T2, FBXO18 (Homo sapiens (Human), UniProt Q8NFZ0 1-1043)
T2 construct: TAP-MS bait
T2 sequence: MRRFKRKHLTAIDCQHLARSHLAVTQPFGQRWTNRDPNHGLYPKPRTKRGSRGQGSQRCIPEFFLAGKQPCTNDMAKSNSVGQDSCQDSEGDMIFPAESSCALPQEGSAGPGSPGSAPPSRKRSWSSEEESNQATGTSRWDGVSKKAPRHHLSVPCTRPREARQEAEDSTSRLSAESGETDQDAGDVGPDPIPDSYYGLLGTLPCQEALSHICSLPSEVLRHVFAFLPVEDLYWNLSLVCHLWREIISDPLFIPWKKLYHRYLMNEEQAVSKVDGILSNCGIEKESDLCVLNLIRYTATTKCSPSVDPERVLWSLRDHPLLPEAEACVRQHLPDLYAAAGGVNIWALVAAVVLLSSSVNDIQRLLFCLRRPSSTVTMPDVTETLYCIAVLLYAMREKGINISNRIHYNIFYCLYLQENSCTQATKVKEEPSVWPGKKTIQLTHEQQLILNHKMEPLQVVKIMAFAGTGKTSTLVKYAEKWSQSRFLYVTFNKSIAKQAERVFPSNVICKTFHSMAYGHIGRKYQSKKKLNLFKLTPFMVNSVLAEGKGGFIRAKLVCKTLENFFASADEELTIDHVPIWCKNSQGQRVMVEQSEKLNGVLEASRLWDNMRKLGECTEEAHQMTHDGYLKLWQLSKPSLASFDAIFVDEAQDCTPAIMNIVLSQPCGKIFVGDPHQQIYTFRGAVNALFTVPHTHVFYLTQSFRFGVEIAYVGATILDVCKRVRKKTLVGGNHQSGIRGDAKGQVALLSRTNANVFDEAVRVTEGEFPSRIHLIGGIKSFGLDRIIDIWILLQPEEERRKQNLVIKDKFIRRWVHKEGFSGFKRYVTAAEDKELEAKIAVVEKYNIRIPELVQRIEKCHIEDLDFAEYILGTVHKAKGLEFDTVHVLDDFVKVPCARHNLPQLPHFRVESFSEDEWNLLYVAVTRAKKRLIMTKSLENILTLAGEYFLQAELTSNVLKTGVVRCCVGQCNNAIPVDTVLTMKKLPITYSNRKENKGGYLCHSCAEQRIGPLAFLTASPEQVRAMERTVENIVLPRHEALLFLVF

PER2 = target: T3, PER2 (Homo sapiens (Human), UniProt O15055 1-1255)
T3 construct: TAP-MS bait
T3 sequence: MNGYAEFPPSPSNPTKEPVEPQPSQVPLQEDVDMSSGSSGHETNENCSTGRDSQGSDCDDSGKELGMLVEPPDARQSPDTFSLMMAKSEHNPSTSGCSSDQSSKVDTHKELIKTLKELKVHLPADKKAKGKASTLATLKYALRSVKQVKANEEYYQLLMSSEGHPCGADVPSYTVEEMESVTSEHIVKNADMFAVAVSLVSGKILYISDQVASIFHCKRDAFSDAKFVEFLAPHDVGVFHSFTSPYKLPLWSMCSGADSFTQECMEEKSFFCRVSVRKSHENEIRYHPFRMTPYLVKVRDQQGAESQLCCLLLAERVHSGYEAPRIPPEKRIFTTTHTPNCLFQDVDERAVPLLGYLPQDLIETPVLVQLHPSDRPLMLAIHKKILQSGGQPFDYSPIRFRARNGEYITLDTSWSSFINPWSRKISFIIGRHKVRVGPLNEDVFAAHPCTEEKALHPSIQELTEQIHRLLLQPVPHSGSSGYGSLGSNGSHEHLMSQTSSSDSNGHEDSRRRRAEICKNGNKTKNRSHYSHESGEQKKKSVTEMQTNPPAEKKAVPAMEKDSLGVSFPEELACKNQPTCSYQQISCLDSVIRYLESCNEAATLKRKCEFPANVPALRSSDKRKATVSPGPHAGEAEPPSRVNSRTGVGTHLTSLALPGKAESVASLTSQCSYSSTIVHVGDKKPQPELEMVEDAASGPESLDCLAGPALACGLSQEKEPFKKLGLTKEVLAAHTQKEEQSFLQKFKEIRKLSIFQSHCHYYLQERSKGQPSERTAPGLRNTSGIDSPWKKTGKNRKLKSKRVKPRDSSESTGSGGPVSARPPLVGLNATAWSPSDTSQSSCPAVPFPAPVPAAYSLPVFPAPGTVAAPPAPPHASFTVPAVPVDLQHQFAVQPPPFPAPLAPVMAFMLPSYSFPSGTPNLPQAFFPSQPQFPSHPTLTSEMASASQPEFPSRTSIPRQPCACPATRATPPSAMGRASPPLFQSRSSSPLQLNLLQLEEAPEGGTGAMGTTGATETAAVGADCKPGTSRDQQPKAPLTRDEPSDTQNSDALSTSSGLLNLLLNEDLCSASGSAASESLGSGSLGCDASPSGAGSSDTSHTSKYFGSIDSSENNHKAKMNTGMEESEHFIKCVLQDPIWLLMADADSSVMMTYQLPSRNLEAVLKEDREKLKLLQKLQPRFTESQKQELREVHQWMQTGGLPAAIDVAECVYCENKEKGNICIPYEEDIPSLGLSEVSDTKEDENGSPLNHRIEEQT

Measured: binding result

B1: Lgr4 (endogenous, or expression construct whose tag is not stated) (receptor)
chain: not shown
notes: whole, on cells; Endogenous protein of HEK293T / LS174T cells in TAP-MS; also called endogenous Lgr4
no binding: all assays above
